Variants at the background level are over-represented here.
B1: TPR 5TU (parent)
chain: GGAUCUUCUCGAUCUAACAAAAAAGACAAAUCUGCCACAAAGCUUGAGAGCAUCUUCGGAUGCAGAGGCGGCAGCCUUCGGUGGCGCGAUAGCGCCAACGUUCUCAACUAUGACACGCAAAACGCGUGCUCCGUUGAAUGGAGUUUAUCAUG

Variants of: B1
Experiment: polymerase ribozyme fitness, log enrichment relative to wild type (log ratio); higher = more active; in vitro selection for triplet polymerase activity
How it was run: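 Libraries of mutants in each subunit of a heterodimeric triplet polymerase ribozyme were generated by PCR and transcribed. In triplicate, each went through one in vitro selection round: annealing with biotinylated primer, partner subunit and triplets; frozen incubation at −7 °C; gel excision of extended constructs; streptavidin-bead capture; RT-PCR. Fitness, taken from Illumina sequencing of input and output libraries, is the logarithm of a genotype's enrichment over wild-type enrichment, averaged across replicates with inverse-variance weights. The logarithm is base 2, and genotypes needed ≥10 input reads and ≥1 read per output to be kept.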

Polymerase ribozyme fitness (log ratio), ≤ -4.2:
GGAUCUUCUCGAUCUAACAAAAAAGACAAAUCUGCCACAAAUCUUGAGAGCAUCUUCGUAUGCAGAGGCGGCAGCCUUCGGUGAUGCGAUAGCGCCAACGUUGUCAACUAUGACACGCGAAACGCGUGCUCCGUUGAAUGGAGUUUAUCAUG [G42U G59U G84A C85U C103G A119G]
GGAUCUUCUCGAUCUAACAAAAAAGACAAAUCUGCCACAAAUCUUGAGAGCAUCUUCGGAUUCAGCGGCGGCAGCCUUCGGUGGCGCGAUAGCGCCAACGUUCUCAACUAUGACACGCAAAACGCGUGCUCCGUUGAAUGGAGCUUAUCAUG [G42U G62U A66C U144C]
GGAUCUUCUCGAUCUAACAAAAAAGACAAAUCUGCCACAAAUCUUGAGAGCAUCUUCGGAUGCAGAGGCCGCAGCCUUCGGUCGCGCGAUAGCGCCAACGUUCUCAACUAUGACACGCAAAACGCGUGCUCCGUUGAAUGCAGUUUAUCAUG [G42U G70C G83C G141C]
GGAUCUUCUCGAUCUAACAAAAAAGACAAAUCUGCCACAAAUCUUGAGAGCAUCUUCGGAUGCAGAGGCGGCAGCCUUCCGUGGCGAGAUAGCGCCAACGUUCUCAACUAUGACAUGCAAAACGCGUGCUCCGUUGAAUGGAGUUUACCAUG [G42U G80C C87A C116U U148C]
GGAUCUUCUCGAUCUAACAAAAAAGACAAAUCUGCCACAAAUCUUGAGAGCAUCUUCGGAUGCAGAGGCGGCAGCCUUCGGUGUCGCGAUAGCGCCAACGUUCUCAACUAUGACACUGAAAACGCGUGCUCCGUUGAAUGGGGUUUAUCAUG [G42U G84U G117U C118G A142G]
GGAUCUUCUCGAUCUAACAAAAAAGACAAAUCUGCCACAAAUCUUGAGAGCAUCUUCGGAUGCAGAGGCGGCAGCCUUCGGUGUCGCGAUAGCGCCAACGUUCUCAACUAUGACACGCAAAACGCGUGCUCCGCUGAAGGGAGUUUAUCAUG [G42U G84U U134C U139G]
GGAUCUUCUCGAUCUAACAAAAAAGACAAAUCUGCCACAAAUCUUGAGAGCAUCUUCGGAUGCAGAGGCGGCAGCCUUCGGUGGCGCAAUAGCGCCAACGUUCUGAACUAUGACACGCAAAACGCGUGCUCCGUUGAAUGGAGUUUAUCAUG [G42U G88A C105G]
GGAUCUUCUCGAUCUAACAAAAAAGACAAAUCUGCCACAAAUCAUGAGAGCAUAUUCGGAUGCAGAGGCGGCAGCCUUCGGUGGCGCUAUAGCGCCAACGUUCUCAACUAUGACACGCAAAACGCGUGCUCCGUUGAAUGGAGUUUAUCAUG [G42U U44A C54A G88U]
GGAUCUUCUCGAUCUAACAAAAAAGACAAAUCUGCCACAAAUCUAGAGAGCAUCUUCGGAUGCAGAGGCGGCAGCCUUCGGUGGCGCGAUAGCGUCAACGUUCUCAACUAUGACACGCAAAACGCGUGCUCCGUUGAAUGGAGUUUAUAAUG [G42U U45A C95U C149A]
GGAUCUUCUCGAUCUAACAAAAAAGACAAAUCUGCCACAAAUCUGGAGAGCACCUUCGGAUGCAGAGGCGGCAGCCUUCGGUGGCGCUAUAGCGCCAACGUUCUCAACUAUGACACGCAAAACGCGUGCUCCGUUGCAUGGAGUUUAUCAUG [G42U U45G U53C G88U A137C]
GGAUCUUCUCGAUCUAACAAAAAAGACAAAUCUGCCACAAAUCUUGAGAGCAGCUUCCGAUGCAGAGGCGGCAGCCUUCGGUGGCGUGAUAGCGCCAACGUUCUCAACUAUGACACGCAAGACGCGUGCUCCGUUGAAUGGAGAUUAUCAUG [G42U U53G G58C C87U A121G U144A]
GGAUCUUCUCGAUCUAACAAAAAAGACAAAUCUGCCACAAAUCUUGAGAGCAUCGUCGAAUGCAGAGGCGGCAGCCUUCGGUGGCGCUAUAGCGCGAGCGUUCUCAACUAUGACACGGAAAACGCGUGCUCCGUUGAAUGGAGUUUAUCAUG [G42U U55G G59A G88U C96G A98G C118G]
GGAUCUUCUCGAUCUAACAAAAAAGACAAAUCUGCCACAAAUCUUGAGAGCAUCGUCGGAUGCAGAGGCGACAGCCUUCGGUGGCGCGAUAGCGCGAACGUUCUCAACUAUGACACGCAAAACGCGUGCUCCGUUGAAUGGAGGUUAUCAUG [G42U U55G G71A C96G U144G]
GGAUCUUCUCGAUCUAACAAAAAAGACAAAUCUGCCACAAAUCUUGAGAGCAUCUACGGAUGCAGAGGCGGCAGCCUUCGGUGGCGCGAUAGCGCCAACGUUCUCAACUAUGACACGCAUAACGCGUGCUCCGUUGAAUGGCGUUUAUCAUG [G42U U56A A120U A142C]
GGAUCUUCUCGAUCUAACAAAAAAGACAAAUCUGCCACAAAUCUUGAGAGCAUCUACGGAUGCAGAGGCGGCAGCCUUCGGUGGCGCGAUAGGGCCAACGUUCUCAACUAUGACACGCAAAACGCGUUCUCCGUUGAAUGGAGUUUAUCAUG [G42U U56A C93G G128U]
GGAUCUUCUCGAUCUAACAAAAAAGACAAAUCUGCCACAAAUCUUGAGAGCAUCUUCGGAAGCGGAGGCGGCAGCCUUCGGUGGUGAGUUAGCGCCAACGUUCUCAACUAUGACACGCAAAACGCGUGCUCCAGUGAAUGGAGUUUAUCCUG [G42U U61A A64G C85U C87A A89U G133A U134G A150C]
GGAUCUUCUCGAUCUAACAAAAAAGACAAAUCUGCCACAAAUCUUGAGAGCAUCUUCGGAUGCAGAGGCGGCAGCCUUCGGUGGCGCGAUAGCGCCAACGUUCUCAACUAUGACACGCAAAACGCGUGCUCCGUUGAAUGGAGUUCAUCAUG [G42U U146C]
GGAUCUUCUCGAUCUAACAAAAAAGACAAAUCUGCCACAAAGAUUGAGAGCGUCUUCGGAUGCAGAGGCGGUAGCAUUCGGUGGAGCGAUAGCGCCAACGUUCUCAACUAUGACACGCAAAACGCGUGCUCCGUUGAAUGGAGUUUAUCAUG [C43A A52G C72U C76A C85A]
GGAUCUUCUCGAUCUAACAAAAAAGACAAAUCUGCCACAAAGAUUGAGAGCAUCUUCGGAUGCUGAGGCGGCAGCCUUCGGUGGCGCGAUGGCGCCAACGUCCUCAACUAUGAUACGCAAAACGCGUGUUCCGUUGAAUGGAGUUUAUCAUG [C43A A64U A91G U102C C114U C129U]
